Sequences and labels used below:
B1: LINE1-mini (parent)
chain: GGCAGAGCUCAACACAGCGUGGCAAAGUGGCUGUGGCUAGACUGCC

The source gives no read counts; variants with many changes may rest on few reads.

These results are taken from the RNAGym collection of RNA variant scans (doi:10.7554/elife.90254).

The data set covers variants of B1. Nature of the data set: self-cleavage, relative activity (ratio to wild type); higher = more cleavage; in vitro, sequencing; the parent is a self-cleaving ribozyme.
As for A4U G5C G27A C45G, the self-cleavage is 0.03. The value for A4U G17A G19A C23A G35C A39G A41U was 0.01; that for G5A A6U C18A U38C was 0.04.

Regarding G5A C8G G30C U34G, the self-cleavage was 0.04.

As for G5A C18A G21C U38C, the self-cleavage was found to be 0.04. Turning to A4U A14U C45A, the self-cleavage came to 0.04.

Regarding G5A C18A G19A A24C C45U, the self-cleavage was 0.03. The value for A4U G22C U38C A39C was 0.11. As for G5A A14U G29U, the figure is 0.08; as for A4U U28G C45G, 0.08; as for A4U A39G C46U, 0.08. The value for A4G U28C G29U C46A was 0.56; that for A4U U9A A11U C37A was 0.03. For the variant G5A C10U U20C, the self-cleavage is 0.01. G5A C15U G22A A41G C45G: the self-cleavage stood at 0.09. As for A4U C10A G21U U43A, the figure is 0.05. As for A4U A11C C42A, the figure is 0. The value for G5A C18A G19A U43C was 0.02. Turning to A4U G19A G21A, the self-cleavage came to 0.1. As for G5A A14C G36U, the figure is 0.21. The value for A4U G5C C8A U9G G29C C31G was 0.05; that for A4U A16G C45G was 0.03; that for G5A C8A C13U U28C was 0.8. The value for G5A C15A G36A was 0.03; that for G5A C15G C18A U34C was 0.02. Consider G5A A12C G17A G21U, for which the self-cleavage worked out at 0.01.

G5A C13U G17U G30C G35A: the self-cleavage was 0.04.

Turning to A4U G21C A26U C31G U32A, the self-cleavage worked out at 0.07. As for G5A A25C G44U C45G, the figure is 0.05; as for A4U A16U G36C, 0.07; as for G5A C15A G40C, 0.04. As for A4U G5C A25C, the figure is 0.08; as for G5A A6C G36U U43A, 0; as for A4U A14C C23U G30A, 0.04. The value for A4U G7A C37A was 0.49. Take G5A A11C A16C G21A G33U: the self-cleavage was determined as 0.02. As for G5A C10U C18U G19C U32C C42A, the figure is 0.04; as for G5A C13U C18U U38G G44C, 0.01; as for G5A C15A C18U C23G, 0.08. The value for A4U G17C G21C G27C was 0.5. In the case of A4U C10G G19C A24G, the self-cleavage was 0.02. The value for A4U G5C C46U was 0.13. As for A4U G7U G33U G36A, the figure is 0.18. As for A4U G40U A41C G44U C46G, the figure is 0.02; as for G5A C8G G29U U32A A41G C46A, 0.04. In the case of G5A C8A G17U G29U C31G C42U, the self-cleavage is 0.27.

With G5A A11C A16U U38A A39G, the self-cleavage is 0.03. Consider A4U C23G A25U, for which the self-cleavage is 0.07. As for A4U G17C C18G U43C, the figure is 0.01; as for G5A A6G A26G G29A, 0.03; as for A4U G5A G33U C37G, 0.06. The value for A4U C18U G21C U32A C37A G44C was 0. The value for G5A C13A U20G was 0.08. With G5A A16U A24C C42A, the self-cleavage came to 0.04. As for G5A C18G G22A G40C, the figure is 0.01; as for A4U C15U U34G, 0.05; as for A4U G17C G35U, 0.06. The value for A4G U34A C42G was 0.33; that for A4U A14U C18A was 0.05. As for A4U A14U C18U, the figure is 0; as for A4U C8A U43A, 0.91; as for A4G U20A G22A G35U, 0.2. G5A A24C A26U C31U U34A C37G: the self-cleavage is 0. The value for A4U G30C C37A was 0.08; that for G5A C10A C45G was 0.01. As for G5A C10A U20C G33U C46A, the figure is 0.03. Turning to A4U G29C G40A, the self-cleavage was determined as 0.01. The value for A4U U32C A39C was 0.11; that for A4U A14C A26U G30U U32G C45U was 0.46; that for A4U A11G C23U G29U was 0.01. The value for G5A A12C C18A G19U C31A was 0.01. As for A4U C10G A25C G33U, the figure is 0.03; as for A4U C8A G19U, 0.11. As to A4G U38A G44C C46U, the self-cleavage was 0.02.

Consider A4U A6G G21U G44A, for which the self-cleavage was found to be 0.

In the case of A4U A11U G19U G22A C31A, the self-cleavage worked out at 0.05.

On to A4U G17U G33A C45A, for which the self-cleavage worked out at 0.04.

Take A4U G5U G22C A26G G33U G36A A39U C45G: the self-cleavage was 0.02. As for A4U A12U C31G U34A C45U, the figure is 0.01. As for G5A A12U G17C G36C C37U, the figure is 0.13; as for A4U C31U U34C, 0.09; as for G5A A16C G29A, 0.04. With A4U G33C G35U, the self-cleavage was found to be 0.06.

Consider G5A A6U G29A, for which the self-cleavage was found to be 0.07. As for A4G U9C C46A, the figure is 0.01; as for A4U C18U G35A, 0.05. The value for A4U C10A C45U was 0.03; that for A4U G5U C13U was 0.18. As for G5A A11U C13U, the figure is 0.04; as for A4U G21U A24G G35C, 0.12.

On to A4U C8A C13G A16C G29U U32G, for which the self-cleavage was found to be 0.06. The value for A4G U9C C23G G29U was 0.59; that for G5A C10A C13U G33U was 0.05. As for A4U A12U G29U, the figure is 0.1; as for G5A A6G G7U G27C U32C, 0.

For G5A A14C G30C, the self-cleavage worked out at 0.07.

On to G5A C8A G29U G40U, for which the self-cleavage was 1.24. The value for G5A A12C C15A G29U U38G A39G was 0; that for A4U A11C G21C C23G was 0.02.

Turning to G5A A39U C45A, the self-cleavage came to 0.03.

Turning to G5A A12C A24C C37G, the self-cleavage came out at 0.02. The value for G5A C10A G19C C42U was 0.03. In the case of A4U G5U C13U G35C, the self-cleavage was found to be 0.06. The value for A4U G17U C23A A39U C42U was 0.05; that for A4U G19U U34G was 0.03. For the variant G5A C15A A16U G17U U34C, the self-cleavage worked out at 0.13.

For A4U A11U U34C G40U, the self-cleavage was 0.02. As for A4U C10G C23G U34A, the figure is 0.02; as for A4U G30A U34G, 0.05. As for G5A A11U C45U, the figure is 0.03. The value for G5A C13A C18U A24U was 0.04; that for A4U C18G A25G U43A was 0.11; that for G5A A12G A39G was 0.04. For G5A A25G G35C, the self-cleavage is 0.06. The value for A4U A6C C13G was 0.02; that for G5A A6G C18G G35A was 0.1. The value for A4U C13G C45U was 0.03. The value for G5A A26G G29U G35U was 0.24.

Take A4U A16G A26G: the self-cleavage was 0.04.

For A4U C15G G17C C23U, the self-cleavage was determined as 0.17. The value for A4U A11G G36U was 0.01; that for A4U U9A G21A A26U C31U G40U C45G was 0.01; that for G5A A11G G21U C45A C46U was 0.01. As for A4U C8G U28C C46A, the figure is 0.03; as for A4U A16U G21U A26U, 0.19; as for A4U U20G C31A, 0.03.

Regarding G5A C13U C23A G35C, the self-cleavage came out at 0.04. The value for A4U C13A G17C was 0.03. As for A4U G44U C45A, the figure is 0.04; as for G5A C8A C15A G19U G29A U43G G44A, 0.17. The value for G5A C15U C18U G21U C31G G35A was 0.01. Take G5A A12G C42U: the self-cleavage came to 0.06. As for A4U A16U G44U, the figure is 0.

Consider A4U A16U G30C, for which the self-cleavage is 0.03.

In the case of A4U A11U G40U, the self-cleavage came to 0.03. Consider A4U G30U C42U, for which the self-cleavage was determined as 0.02. As for A4U C13U U32A A41U, the figure is 0.04; as for A4U G5U A11C U28A, 0.01; as for G5A C8A A41U, 0.76. As for G5A A25U G44U C45U, the figure is 0; as for G5A C18G G22U C23G U28G G30U C42G, 0.04; as for G5A A6U U20A, 0.13. Take A4U G5A A11U A25C A41U C45U: the self-cleavage was 0.01.

Take G5A A14C G17U A25G A26C C31A G36U: the self-cleavage was 0.01. Regarding G5A A16G A25C C37G, the self-cleavage was determined as 0.01.

In the case of A4U C10G U43G, the self-cleavage was determined as 0.02. The value for A4G U9G C23U U34G A39U was 0.03; that for G5A C13G C15U C18A C31A U38A was 0.03. As to G5A A24G G27A, the self-cleavage came out at 0.09. Turning to A4U G17A G19A G30A A39G, the self-cleavage was 0.03. The value for A4U G40A C42A C45U was 0.01; that for A4U A6G G19C A41C was 0.04. On to A4U G5C C42A, for which the self-cleavage came out at 0.18. The value for G5A C18A U32G was 0.01. With A4U C8U C31A, the self-cleavage came out at 0.24. For the variant A4G U38A G40C, the self-cleavage is 0.12.

For A4G U43C C45U, the self-cleavage worked out at 0.64. On to G5A A11U G21U G33C, for which the self-cleavage worked out at 0.03. As for G5A C10A U38C C46A, the figure is 0.04; as for A4U A11G A12G U32A, 0.02; as for G5A C10A C13A A26C, 0.01.

Regarding G5A A6C C10A, the self-cleavage was found to be 0.12. The value for A4U A12U C31U G40U was 0.05; that for A4U G5A U9C C23U G27C U32A G36A C37A was 0.04. As for A4U G5U A41U, the figure is 0.09. As for A4U G5A C8A C15A G29A U43A, the figure is 0.38; as for G5A A26U G33U C37U C45G, 0.01.
